Assay results published in the supplement of paper PMC4967469.

Compound: CC(C)(C)c1nc(-c2cccc(NS(=O)(=O)c3c(F)cccc3F)c2F)c(-c2ccnc(N)n2)s1 [Dabrafenib]
Assay: Viability of human cancer cell lines after 72 h of drug (GDSC screen)
Conditions: top dose 10 µM
Method: (§1)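 Human cancer cell lines in 384-well plates, medium with 10% serum, drug for 72 h over a 256-fold dose range (nine 2-fold or five 4-fold steps up to the top dose). Adherent lines were fixed and stained with the nucleic acid dye Syto60, suspension lines read with resazurin; signal relative to control wells, capped at 0 and 100%. One two-parameter sigmoid per drug and line, fitted in a mixed model over all curves with the slope shared within a line.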

| Cell Line | AUC | IC50 |
| --- | --- | --- |
| IGROV-1 (ovary, adherent) | 0.933 | > 10 µM |
| OVCAR-8 (ovary, adherent) | 0.989 | > 10 µM |

Compound: Cn1cc(C2=C(c3cn(C4CCN(Cc5ccccn5)CC4)c4ccccc34)C(=O)NC2=O)c2ccccc21 [LY317615]
Assay: as above
Conditions: top dose inferred
Method: as §1

| Cell Line | AUC | IC50 |
| --- | --- | --- |
| RPMI-8866 (chronic myeloid leukaemia, suspension, top dose 20 µM) | 0.901 | > 20 µM |
| NCI-H1435 (lung adenocarcinoma, semi-adherent, top dose 20 µM) | 0.911 | > 20 µM |
| G-402 (soft tissue, adherent, top dose 20 µM) | 0.764 | 9.63 µM |
| OVCAR-8 (ovary, adherent, top dose 20 µM) | 0.959 | > 20 µM |
| U-87-MG (glioma, adherent, top dose 20 µM) | 0.96 | > 20 µM |
| A204 (rhabdomyosarcoma, adherent, top dose 20 µM) | 0.774 | 10.3 µM |
| SU-DHL-6 (B-cell lymphoma, suspension, top dose 20 µM) | 0.561 | 1.76 µM |
| NCI-H460 (large cell lung carcinoma, adherent, top dose 20 µM) | 0.99 | > 20 µM |
| KURAMOCHI (ovary, adherent, top dose 20 µM) | 0.674 | 4.17 µM |
| WSU-NHL (lymphoid neoplasm, suspension, top dose 20 µM) | 0.848 | 12.3 µM |
| NCI-H1693 (lung adenocarcinoma, adherent, top dose 20 µM) | 0.977 | > 20 µM |
| LU-165 (small cell lung carcinoma, suspension, top dose 20 µM) | 0.919 | > 20 µM |
| DOV13 (ovary, adherent, top dose 20 µM) | 0.932 | > 20 µM |
| OVCA420 (ovary, adherent, top dose 20 µM) | 0.897 | > 20 µM |
| TE-441-T (rhabdomyosarcoma, adherent, top dose 20 µM) | 0.988 | > 20 µM |
| CAL-33 (head and neck, adherent, top dose 20 µM) | 0.967 | > 20 µM |
| HCC2998 (large intestine, adherent, top dose 20 µM) | 0.893 | > 20 µM |
| NCI-H209 (small cell lung carcinoma, suspension, top dose 20 µM) | 0.985 | > 20 µM |
| KNS-81-FD (glioma, adherent, top dose 20 µM) | 0.974 | > 20 µM |
| CS1 (bone, adherent, top dose 20 µM) | 0.838 | 15.8 µM |
| L-428 (Hodgkin lymphoma, suspension, top dose 20 µM) | 0.934 | > 20 µM |
| OACp4C (oesophagus, adherent, top dose 20 µM) | 0.946 | > 20 µM |
| MRK-nu-1 (breast, suspension, top dose 20 µM) | 0.988 | > 20 µM |
| LB771-HNC (head and neck, adherent, top dose 20 µM) | 0.707 | 5.63 µM |
| SNU-387 (liver, adherent, top dose 20 µM) | 0.845 | 17.6 µM |
| J82 (bladder, adherent, top dose 20 µM) | 0.815 | 10.9 µM |
| LP-1 (myeloma, suspension, top dose 20 µM) | 0.862 | 12.5 µM |

| Cell Line | AUC | IC50 |
| --- | --- | --- |
| NCI-H82 (small cell lung carcinoma, suspension, top dose 20 µM) | 0.955 | > 20 µM |
| CAL-148 (breast, suspension, top dose 20 µM) | 0.99 | > 20 µM |
| HA7-RCC (kidney, adherent, top dose 20 µM) | 0.898 | > 20 µM |
| A673 (rhabdomyosarcoma, adherent, top dose 20 µM) | 0.99 | > 20 µM |
| 5637 (bladder, adherent, top dose 20 µM) | 0.771 | 6.93 µM |
| SW837 (large intestine, adherent, top dose 20 µM) | 0.829 | 18.3 µM |
| 451Lu (melanoma, adherent, top dose 20 µM) | 0.974 | > 20 µM |
| VM-CUB-1 (bladder, adherent, top dose 20 µM) | 0.975 | > 20 µM |
| HCC-78 (lung adenocarcinoma, adherent, top dose 20 µM) | 0.727 | 6.25 µM |
| ES5 (Ewing sarcoma, adherent, top dose 20 µM) | 0.641 | 3.25 µM |
| SK-CO-1 (large intestine, adherent, top dose 20 µM) | 0.954 | > 20 µM |
| SKG-IIIa (cervix, adherent, top dose 20 µM) | 0.983 | > 20 µM |
| IST-SL1 (small cell lung carcinoma, semi-adherent, top dose 20 µM) | 0.892 | > 20 µM |
| MFH-ino (soft tissue, adherent, top dose 20 µM) | 0.977 | > 20 µM |
| KYSE-150 (oesophagus, adherent, top dose 20 µM) | 0.945 | > 20 µM |
| EW-3 (Ewing sarcoma, adherent, top dose 20 µM) | 0.984 | > 20 µM |
| C2BBe1 (large intestine, adherent, top dose 20 µM) | 0.977 | > 20 µM |
| KLE (endometrium, adherent, top dose 20 µM) | 0.535 | 1.64 µM |
| MHH-ES-1 (Ewing sarcoma, adherent, top dose 20 µM) | 0.899 | > 20 µM |
| G-MEL (melanoma, adherent, top dose 20 µM) | 0.896 | > 20 µM |
| NCI-H510A (small cell lung carcinoma, semi-adherent, top dose 20 µM) | 0.951 | > 20 µM |
| BE2-M17 (neuroblastoma, adherent, top dose 20 µM) | 0.987 | > 20 µM |
| SNU-398 (liver, adherent, top dose 20 µM) | 0.983 | > 20 µM |
| Hs940-T (melanoma, adherent, top dose 20 µM) | 0.799 | 12.1 µM |
| CADO-ES1 (Ewing sarcoma, suspension, top dose 20 µM) | 0.78 | 8.4 µM |
| MDA-MB-415 (breast, adherent, top dose 20 µM) | 0.982 | > 20 µM |
| 647-V (bladder, adherent, top dose 20 µM) | 0.982 | > 20 µM |

| Cell Line | AUC | IC50 |
| --- | --- | --- |
| SNU-475 (liver, adherent, top dose 20 µM) | 0.598 | 2.25 µM |
| UACC-257 (melanoma, adherent, top dose 20 µM) | 0.812 | 14.1 µM |
| SNU-C1 (large intestine, suspension, top dose 20 µM) | 0.941 | > 20 µM |
| JHH-6 (liver, adherent, top dose 20 µM) | 0.987 | > 20 µM |
| SUP-B15 (lymphoblastic leukaemia, suspension, top dose 20 µM) | 0.419 | 0.759 µM |
| Hey (ovary, adherent, top dose 20 µM) | 0.96 | > 20 µM |
| H2795 (mesothelioma, adherent, top dose 20 µM) | 0.89 | > 20 µM |
| MDA-MB-361 (breast, adherent, top dose 20 µM) | 0.973 | > 20 µM |
| CPC-N (small cell lung carcinoma, suspension, top dose 20 µM) | 0.973 | > 20 µM |
| NCI-H2347 (lung adenocarcinoma, adherent, top dose 20 µM) | 0.649 | 3.55 µM |
| LN-18 (glioma, adherent, top dose 20 µM) | 0.97 | > 20 µM |
| SU-DHL-16 (B-cell lymphoma, suspension, top dose 20 µM) | 0.909 | 14 µM |
| AGS (stomach, adherent, top dose 20 µM) | 0.963 | > 20 µM |
| COLO-792 (melanoma, adherent, top dose 20 µM) | 0.882 | > 20 µM |
| NCI-H2172 (non-small cell lung carcinoma, adherent, top dose 20 µM) | 0.928 | > 20 µM |
| HO-1-u-1 (head and neck, adherent, top dose 20 µM) | 0.94 | > 20 µM |
| Hs683 (glioma, adherent, top dose 20 µM) | 0.876 | > 20 µM |
| OE19 (oesophagus, adherent, top dose 20 µM) | 0.972 | > 20 µM |
| CHP-212 (neuroblastoma, adherent, top dose 20 µM) | 0.386 | 0.623 µM |
| MZ7-mel (melanoma, adherent, top dose 20 µM) | 0.739 | 6.22 µM |
| KYSE-270 (oesophagus, adherent, top dose 20 µM) | 0.928 | > 20 µM |
| SCC-3 (B-cell lymphoma, suspension, top dose 20 µM) | 0.904 | 13.3 µM |
| HCC202 (breast, adherent, top dose 20 µM) | 0.912 | > 20 µM |
| LS-411N (large intestine, adherent, top dose 20 µM) | 0.855 | > 20 µM |
| T98G (glioma, adherent, top dose 20 µM) | 0.935 | > 20 µM |

A lower IC50 marks a more sensitive line; fits outside the tested doses are given as limits. For AUC the same curve is integrated over the 256-fold range of doses and scaled to a fraction: 1 means no effect, lower means more sensitive. For part of these data: An inferred top dose comes from the curve model; the source does not state it.
